# Measured values reported in PubChem BioAssay AID686978 (National Center for Advancing Translational Sciences (NCATS), 2013).
# Values joined by “and” are separate entries in the source; they are usually repeats but may differ in a detail not shown here. Equal entries are not always repeated. The campaign covered roughly 420,000 compounds. About 64,000 (15%) were called active. Inconclusive means that the source gave no clear call. Such entries were picked first, then a sample of the others. Calls come from the whole dose curve; as a rule, active = well fitted inhibition curve with a large enough effect; inconclusive = small, poorly fitted or top-dose-only effect; inactive = flat fitted curve, though single readings scatter. Potencies beside an inconclusive call are fits to weak or partial responses and may not hold up.
# Assay: qHTS for Inhibitors of human tyrosyl-DNA phosphodiesterase 1 (TDP1): qHTS in cells in absence of CPT; note: nearly all actives have a fitted effect of over 55% in size
# Conditions: DT40 Tdp1-/- hTDP1 cells, no CPT, ATP luminescence, 48 h; series mostly up to 46.2 µM
# Method in brief: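 Luminescent ATP content (CellTiter-Glo) served as the growth readout. Knockout chicken DT40 cells expressing human TDP1 were exposed to compounds without camptothecin for a minimum 48 hr at 37 °C.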
# Potency is the fitted concentration of half-maximal effect; tags give direction and shape of the fitted curve.
row,SMILES,Potency
1,CN1CCc2[nH]c3ccc(Cl)cc3c2C1,inactive
2,COC(=O)c1c(NC(=O)CSc2nc3nc(C)cc(C)n3n2)sc(C)c1C,"inconclusive: 20.6 µM [inhibitor, partial curve]"
3,CSc1ccccc1OCc1cc(C(=O)NC2CCOC(C)(C)C2)no1 (stereo unspecified),"inconclusive: 11.6 µM [inhibitor, single point]"
4,CN=C1SC(C(=O)Nc2ccccc2Cl)CC(=O)N1c1ccc(OC(F)(F)Cl)cc1 (stereo unspecified),"inconclusive: 23.1 µM [inhibitor, single point]"
5,O=C(Cc1ccccc1)NC(Nc1cccc2ccccc12)C(Cl)(Cl)Cl (stereo unspecified),active: 25.9 µM
6,Fc1ccc(-c2ccc(CNCc3ccccn3)o2)cc1,"inconclusive: 0.0146 µM [inhibitor, full curve, poor fit]"
7,CCOc1ccc(-n2nc3ccc(NC(=O)c4ccc5c(c4)OCCO5)cc3n2)cc1,active: 5.8 µM
8,COc1ccc(C(O)c2nc(-c3cccc(CO)c3)cs2)cc1 (stereo unspecified),"inconclusive: 29.1 µM [inhibitor, single point]"
9,COc1ccc(CCNC(=O)CSc2nnc3ccc(-c4ccccn4)nn23)cc1,"inconclusive: 29.1 µM [inhibitor, single point]"
10,COc1ccc(/C(C)=N/Nc2ccc(F)cc2F)c(O)c1,inactive
11,COc1cccc(NC(=O)N(C)C[C@@H]2OCc3cnnn3CCCC(=O)N([C@@H](C)CO)C[C@H]2C)c1,inactive
12,CCOC(=O)C1(C)NC(c2ccc(OC)c(OC)c2)C2C(=O)N(c3cccc(C(C)=O)c3)C(=O)C21 (stereo unspecified),inactive
13,OC(c1ccc(Cl)c(Cl)c1)c1ncc(-c2ccccc2F)[nH]1 (stereo unspecified),"inconclusive: 29.1 µM [inhibitor, single point]"
14,CC1(c2ccc(Cl)cc2)NC(=O)N(CC(=O)NC(=O)NCc2ccco2)C1=O (stereo unspecified),inactive
15,CN(Cc1nccn1C)C(=O)CC1C(=O)NCCN1Cc1ccccc1C(F)(F)F (stereo unspecified),inactive
16,CCN(CC(=O)Nc1ccccc1C(F)(F)F)C(=O)c1ccccc1OCc1ccc(F)cc1,active: 20.6 µM
17,COc1ccc(OC)c(NC(=O)CN(c2ccc(C(C)C)cc2)S(=O)(=O)c2c(C)noc2C)c1,"inconclusive: 29.1 µM [inhibitor, single point]"
18,CC1(C)COC(c2ccc3c(c2)OCO3)OC1,inactive
19,CN(C)CCCNC(=S)Nc1ccc(-c2ccccc2)cc1,"inconclusive: 29.1 µM [inhibitor, single point]"
20,C[C@H]1CN([C@@H](C)CO)C(=O)c2cc(-c3ccccc3F)cnc2O[C@@H]1CN(C)C(=O)NC1CCCCC1,"inconclusive: 10.3 µM [inhibitor, partial curve]"
21,CCOc1ccccc1NC(=O)C1=C(C)NC(=S)NC1c1cccs1 (stereo unspecified),"inconclusive: 18.4 µM [inhibitor, partial curve, poor fit]"
22,CC(C)CCNC(=O)c1onc(CSc2ccc(F)c(F)c2)c1C(=O)NCCC(C)C,"inconclusive: 23.1 µM [inhibitor, single point]"
23,CC(=O)Nc1nnc([N+](=O)[O-])s1,active: 18.4 µM

row,SMILES,Potency
1,O=C(O)c1ccccc1C(c1ccc(O)cc1)c1ccc(O)cc1,inactive
2,Nc1ccc(-c2nc3ccc(-c4nc5ccccc5o4)cc3[nH]2)cc1,active: 8.2 µM
3,CCN(CC)S(=O)(=O)c1ccc(N=Nc2cc(C)cc(Br)c2O)cc1,"inconclusive: 23.1 µM [inhibitor, partial curve]"
4,O=C(COc1ccccc1)Nc1ccc2nc(SCCOc3ccccc3)sc2c1,"inconclusive: 23.1 µM [inhibitor, single point]"
5,CC(=O)Oc1ccc(-c2csc(Nc3cccc(C)n3)n2)cc1,"inconclusive: 29.1 µM [inhibitor, single point]"
6,CC(=O)c1c(C)[nH]c(C(=O)NCCN2CCC(C)CC2)c1C,inactive
7,OCc1nn2c(c1Br)NC(c1ccccc1)CC2C(F)(F)F (stereo unspecified),"inconclusive: 29.1 µM [inhibitor, single point]"
8,O=C(CN1CCCC1=O)NC1CCCc2c1cnn2-c1cc(F)cc(F)c1 (stereo unspecified),inactive
9,Cc1cc(C)c2oc(-c3cccc(NC(=O)COc4ccc([N+](=O)[O-])cc4)c3)nc2c1,"inconclusive: 23.1 µM [inhibitor, single point]"
10,Cc1ccc(NC(=O)Cn2c(=O)n(CC3CCCO3)c(=O)c3ccccc32)cc1 (stereo unspecified),inactive
11,CC1=C(C(=O)OCC2CCCO2)C(c2ccccc2)NC(=O)N1 (stereo unspecified),inactive
12,COc1cc(C[C@@H](C)[C@@H](C)Cc2ccc(O)c(OC)c2)ccc1O,"inconclusive: 13 µM [inhibitor, single point]"
13,Cc1ccc(-n2c(Cc3cccn3C)nnc2SCC(=O)NC2CCCCC2)cc1,"inconclusive: 35.5 µM [inhibitor, single point]"
14,FC(F)(F)c1cc(Cl)c2nc(-c3ccco3)c(Cc3ccccc3C(F)(F)F)n2c1,active: 14.6 µM
15,CCCC(=O)Oc1c(S(=O)(=O)c2ccc(C)cc2)c(C)nn1C(C)(C)C,inactive
16,O=S(=O)(NCc1ccc(F)cc1)c1ccccc1Br,"inactive and inconclusive: 12.6 µM [inhibitor, partial curve]"
17,O=C(NCc1ccco1)c1cccc2c(-c3ccc(F)c(F)c3)coc12,"inconclusive: 29.1 µM [inhibitor, single point]"
18,CC1CCCc2sc3nc(SCC(=O)c4ccc(Br)cc4)nc(N)c3c21 (stereo unspecified),"inconclusive: 25.9 µM [inhibitor, single point]"
19,CCOC(=O)C(=O)Nc1nc(-c2ccccc2)c(CC)s1,inactive
20,O=c1c2ccccc2[nH]c(=S)n1CCCN1CCC(Cc2ccccc2)CC1,"inconclusive: 29.1 µM [inhibitor, single point]"
21,Cc1ccc(C(=O)NC(=S)NCc2ccccc2)cc1Br,"inconclusive: 29.1 µM [inhibitor, single point]"
22,O=C(CSc1ncn[nH]1)NCCC(c1ccccc1)c1ccccc1,"inconclusive: 29.1 µM [inhibitor, single point]"
23,COc1ccc(-c2cc(C(F)(F)F)nc(SCCC(=O)N3CCCC3)n2)cc1,"inconclusive: 23.1 µM [inhibitor, partial curve]"
